{"source": "the supplement of paper PMC10037445", "key": {"RAW-Dual [1]": {"tested_on": "RAW-Dual", "experiment": "NF-kB SEAP reporter activity, fold change vs agonist alone; cytotoxicity flag (confluency mask): cytotoxic (confluency <70% of control); higher = enhanced NF-kB activity", "summary_of_the_method": "(§1)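 RAW-Dual macrophages were seeded in DMEM at 50,000 cells/well in 384-well plates, given 50 nL of library stock by pin tool, and given a PRR agonist 1 h later. Plates were held at 37 °C, 5% CO2 for 20 hours, after which supernatant was read for IRF by QuantiLuc luminescence and for NF-κB by QuantiBlue absorbance at 620 nm. Reporter activity is expressed as fold change over wells that received agonist alone. A well was called cytotoxic when IncuCyte confluency fell below 70% of agonist controls in both mask sets.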"}, "RAW-Dual [2]": {"tested_on": "RAW-Dual", "experiment": "NF-kB SEAP reporter activity, fold change vs agonist alone; higher = enhanced NF-kB activity", "summary_of_the_method": "as §1"}, "RAW-Dual [3]": {"tested_on": "RAW-Dual", "experiment": "NF-kB SEAP reporter activity, fold change vs agonist alone; cytotoxicity flag (confluency mask): not cytotoxic; higher = enhanced NF-kB activity", "summary_of_the_method": "as §1"}, "[4]": {"conditions": "agonist: ODN 1826 (TLR9) 0.5 ug/mL"}, "[5]": {"conditions": "agonist: Pam2CSK4 (TLR2/6) 0.1 ug/mL"}, "[6]": {"conditions": "agonist: Pam3CSK4 (TLR2/1) 0.1 ug/mL"}, "[7]": {"conditions": "library stock concentration (final ~1000-fold dilution): 10 mM, cytotoxicity flag (confluency mask): cytotoxic (confluency <70% of control), agonist: Imiquimod (TLR7) […]"}, "[8]": {"conditions": "library stock concentration (final ~1000-fold dilution): 10 mM, cytotoxicity flag (confluency mask): cytotoxic (confluency <70% of control), agonist: MPLA (TLR4) […]"}, "[9]": {"conditions": "library stock concentration (final ~1000-fold dilution): 10 mM, cytotoxicity flag (confluency mask): not cytotoxic, agonist: Imiquimod (TLR7) […]"}, "[10]": {"conditions": "library stock concentration (final ~1000-fold dilution): 10 mM, cytotoxicity flag (confluency mask): not cytotoxic, agonist: MPLA (TLR4) […]"}}, "note": "In all, about 2,900 compounds were measured (“NF-kB SEAP reporter activity, fold change vs agonist alone”: median about 0.99, highest 2% from about 2.6 on). The list shows a part of the results."}
{"smiles": "COc1cc(N2CCC(N)CC2)ccc1Nc1ncc(Cl)c(-c2c[nH]c3ccccc23)n1", "note": "(library stock concentration (final ~1000-fold dilution): 10 mM)", "values": [{"measurement": "NF-kB SEAP reporter activity", "setting": "RAW-Dual [1]; agonist: LPS (TLR4) 0.1 ug/mL", "result": 0.166}, {"measurement": "NF-kB SEAP reporter activity", "setting": "RAW-Dual [1]; [4]", "result": 0.19}, {"measurement": "NF-kB SEAP reporter activity", "setting": "RAW-Dual [1]; [5]", "result": 0.0626}, {"measurement": "NF-kB SEAP reporter activity", "setting": "RAW-Dual [1]; [6]", "result": 0.118}]}
{"smiles": "COc1cc(N2CCC(N)CC2)ccc1Nc1ncc(Cl)c(-c2c[nH]c3ccccc23)n1", "values": [{"measurement": "NF-kB SEAP reporter activity", "setting": "RAW-Dual [2]; [7]", "result": 0.251}, {"measurement": "NF-kB SEAP reporter activity", "setting": "RAW-Dual [2]; [8]", "result": 0.226}]}
{"smiles": "C[N+](C)(C)NCCC(=O)O", "values": [{"measurement": "NF-kB SEAP reporter activity", "setting": "RAW-Dual [2]; library stock concentration (final ~1000-fold dilution): 10 mM water, cytotoxicity flag (confluency mask): not cytotoxic, agonist: Imiquimod (TLR7) […]", "result": 0.956}, {"measurement": "NF-kB SEAP reporter activity", "setting": "RAW-Dual [2]; library stock concentration (final ~1000-fold dilution): 10 mM water, cytotoxicity flag (confluency mask): not cytotoxic, agonist: MPLA (TLR4) […]", "result": 1.02}]}
{"smiles": "C[N+](C)(C)NCCC(=O)O", "note": "(library stock concentration (final ~1000-fold dilution): 10 mM water)", "values": [{"measurement": "NF-kB SEAP reporter activity", "setting": "RAW-Dual [3]; agonist: LPS (TLR4) 0.1 ug/mL", "result": 1.04}, {"measurement": "NF-kB SEAP reporter activity", "setting": "RAW-Dual [3]; [4]", "result": 1.12}, {"measurement": "NF-kB SEAP reporter activity", "setting": "RAW-Dual [3]; [5]", "result": 1.23}, {"measurement": "NF-kB SEAP reporter activity", "setting": "RAW-Dual [3]; [6]", "result": 1.31}]}
{"smiles": "CCOc1ccccc1OC(c1ccccc1)C1CNCCO1.CS(=O)(=O)O", "note": "(stereo not given) (library stock concentration (final ~1000-fold dilution): 10 mM)", "values": [{"measurement": "NF-kB SEAP reporter activity", "setting": "RAW-Dual [3]; agonist: LPS (TLR4) 0.1 ug/mL", "result": 1.26}, {"measurement": "NF-kB SEAP reporter activity", "setting": "RAW-Dual [3]; [4]", "result": 0.686}, {"measurement": "NF-kB SEAP reporter activity", "setting": "RAW-Dual [3]; [5]", "result": 1.01}, {"measurement": "NF-kB SEAP reporter activity", "setting": "RAW-Dual [3]; [6]", "result": 0.987}]}
{"smiles": "CCOc1ccccc1OC(c1ccccc1)C1CNCCO1.CS(=O)(=O)O", "note": "(stereo not given)", "values": [{"measurement": "NF-kB SEAP reporter activity", "setting": "RAW-Dual [2]; [9]", "result": 1.33}, {"measurement": "NF-kB SEAP reporter activity", "setting": "RAW-Dual [2]; [10]", "result": 1.14}]}
{"smiles": "CCOC(=O)C1=CC(OC(CC)CC)C(NC(C)=O)C(N)C1", "note": "(stereo not given)", "values": [{"measurement": "NF-kB SEAP reporter activity", "setting": "RAW-Dual [2]; library stock concentration (final ~1000-fold dilution): 2 mM, cytotoxicity flag (confluency mask): not cytotoxic, agonist: Imiquimod (TLR7) […]", "result": 0.848}, {"measurement": "NF-kB SEAP reporter activity", "setting": "RAW-Dual [2]; library stock concentration (final ~1000-fold dilution): 2 mM, cytotoxicity flag (confluency mask): not cytotoxic, agonist: MPLA (TLR4) […]", "result": 1.03}]}
{"smiles": "CCOC(=O)C1=CC(OC(CC)CC)C(NC(C)=O)C(N)C1", "note": "(stereo not given) (library stock concentration (final ~1000-fold dilution): 2 mM)", "values": [{"measurement": "NF-kB SEAP reporter activity", "setting": "RAW-Dual [3]; agonist: LPS (TLR4) 0.1 ug/mL", "result": 1.17}, {"measurement": "NF-kB SEAP reporter activity", "setting": "RAW-Dual [3]; [4]", "result": 1.08}, {"measurement": "NF-kB SEAP reporter activity", "setting": "RAW-Dual [3]; [5]", "result": 1.16}, {"measurement": "NF-kB SEAP reporter activity", "setting": "RAW-Dual [3]; [6]", "result": 1.11}]}
{"smiles": "CC(c1ncncc1F)C(O)(Cn1cncn1)c1ccc(F)cc1F", "note": "(stereo not given) (library stock concentration (final ~1000-fold dilution): 10 mM)", "values": [{"measurement": "NF-kB SEAP reporter activity", "setting": "RAW-Dual [3]; agonist: LPS (TLR4) 0.1 ug/mL", "result": 1.19}, {"measurement": "NF-kB SEAP reporter activity", "setting": "RAW-Dual [3]; [4]", "result": 1.07}, {"measurement": "NF-kB SEAP reporter activity", "setting": "RAW-Dual [3]; [5]", "result": 1}, {"measurement": "NF-kB SEAP reporter activity", "setting": "RAW-Dual [3]; [6]", "result": 1.11}]}
{"smiles": "CC(c1ncncc1F)C(O)(Cn1cncn1)c1ccc(F)cc1F", "note": "(stereo not given)", "values": [{"measurement": "NF-kB SEAP reporter activity", "setting": "RAW-Dual [2]; [9]", "result": 1.03}, {"measurement": "NF-kB SEAP reporter activity", "setting": "RAW-Dual [2]; [10]", "result": 0.848}]}
{"smiles": "O=C(O)c1ccc2c(c1)nc(Nc1cccc(Cl)c1)c1ccncc12", "note": "(library stock concentration (final ~1000-fold dilution): 10 mM)", "values": [{"measurement": "NF-kB SEAP reporter activity", "setting": "RAW-Dual [3]; agonist: LPS (TLR4) 0.1 ug/mL", "result": 1.48}, {"measurement": "NF-kB SEAP reporter activity", "setting": "RAW-Dual [3]; [4]", "result": 0.767}, {"measurement": "NF-kB SEAP reporter activity", "setting": "RAW-Dual [3]; [5]", "result": 0.523}, {"measurement": "NF-kB SEAP reporter activity", "setting": "RAW-Dual [3]; [6]", "result": 0.707}]}
{"smiles": "O=C(O)c1ccc2c(c1)nc(Nc1cccc(Cl)c1)c1ccncc12", "values": [{"measurement": "NF-kB SEAP reporter activity", "setting": "RAW-Dual [2]; [9]", "result": 0.836}, {"measurement": "NF-kB SEAP reporter activity", "setting": "RAW-Dual [2]; [10]", "result": 1.24}]}
{"smiles": "O=C1CC(=O)c2c(Cl)c(Cl)c(Cl)c(Cl)c21", "note": "(library stock concentration (final ~1000-fold dilution): 10 mM)", "values": [{"measurement": "NF-kB SEAP reporter activity", "setting": "RAW-Dual [3]; agonist: LPS (TLR4) 0.1 ug/mL", "result": 0.891}, {"measurement": "NF-kB SEAP reporter activity", "setting": "RAW-Dual [3]; [4]", "result": 0.801}, {"measurement": "NF-kB SEAP reporter activity", "setting": "RAW-Dual [3]; [5]", "result": 0.923}, {"measurement": "NF-kB SEAP reporter activity", "setting": "RAW-Dual [3]; [6]", "result": 0.823}]}
{"smiles": "O=C1CC(=O)c2c(Cl)c(Cl)c(Cl)c(Cl)c21", "values": [{"measurement": "NF-kB SEAP reporter activity", "setting": "RAW-Dual [2]; [9]", "result": 0.836}, {"measurement": "NF-kB SEAP reporter activity", "setting": "RAW-Dual [2]; [10]", "result": 1.17}]}
{"smiles": "COc1ccc(S(=O)(=O)Nc2cccnc2Nc2ccc(O)cc2)cc1", "note": "(library stock concentration (final ~1000-fold dilution): 10 mM)", "values": [{"measurement": "NF-kB SEAP reporter activity", "setting": "RAW-Dual [3]; agonist: LPS (TLR4) 0.1 ug/mL", "result": 4.93}, {"measurement": "NF-kB SEAP reporter activity", "setting": "RAW-Dual [3]; [4]", "result": 3.17}, {"measurement": "NF-kB SEAP reporter activity", "setting": "RAW-Dual [3]; [5]", "result": 1.86}, {"measurement": "NF-kB SEAP reporter activity", "setting": "RAW-Dual [3]; [6]", "result": 2.22}]}
{"smiles": "COc1ccc(S(=O)(=O)Nc2cccnc2Nc2ccc(O)cc2)cc1", "values": [{"measurement": "NF-kB SEAP reporter activity", "setting": "RAW-Dual [2]; [9]", "result": 2.48}, {"measurement": "NF-kB SEAP reporter activity", "setting": "RAW-Dual [2]; [10]", "result": 1.92}]}
{"smiles": "O=C1NCCc2[nH]c(-c3ccncc3)cc21", "values": [{"measurement": "NF-kB SEAP reporter activity", "setting": "RAW-Dual [2]; [7]", "result": 2.03}, {"measurement": "NF-kB SEAP reporter activity", "setting": "RAW-Dual [2]; [8]", "result": 1.23}]}
